# Measured values taken from the supplement of paper PMC12217912.
# The list shows a part of the results. The full chains were built here from the parent and the listed change. Inactive controls read about 0.05.
# B1: TEV protease; numbered along this chain (parent)
# chain: MGESLFKGPRDYNPISSSICHLTNESDGHTTSLYGIGFGPFIITNKHLFRRNNGTLVVQSLHGVFKVKDTTTLQQHLVDGRDMIIIRMPKDFPPFPQKLKFREPQREERICLVTTNFQTKSMSSMVSDTSCTFPSGDGIFWKHWIQTKDGQCGSPLVSTRDGFIVGIHSASNFTNTNNYFTSVPKNFMELLTNQEAQQWVSGWRLNADSVLWGGHKVFMVKPEEPFQPVKEATQL
# Variants of: B1
# Assay: raw area under fraction-flipped curve 0-4 h after induction (AUC4h, not background-subtracted), DNA-recorder readout of cleavage of the substrate (dimensionless); higher = more cleavage of the substrate by the protease variant
# Details: temperature: 34 °C; time window: 0-4 h after rhamnose induction
# 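Further: Bxb1 expression induced with 0.2% (w/v) L-rhamnose at OD600 near 0.5, cultures sampled hourly, flipped fraction per protease–substrate barcode pair counted by paired-end Illumina sequencing.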
Variant,area with substrate ENCYFQS,area with substrate ENDYFQS,area with substrate ENEYFQS,area with substrate ENHYFQS,area with substrate ENQYFQS,area with substrate ENTYFQS,area with substrate ENWYFQS,area with substrate ENNYFQS,area with substrate ENSYFQS,area with substrate ENYYFQS
K142N,0.0651,0.0475,0.0652,0.0989,0.0691,0.0642,0.0249,–,–,–
H143N,0.0612,–,–,0.0526,–,–,–,0.069,0.063,0.0395
I145G,0.065,0.0458,–,–,0.0518,0.0609,–,–,0.0502,–
I145N,0.0531,–,0.0606,0.0455,0.0469,–,–,–,0.11,–
K148L,0.0716,0.0655,–,0.0595,0.0461,0.066,–,0.0706,0.0528,0.0655
D149P,0.0731,–,–,0.0578,0.0751,–,0.0528,0.0656,0.0615,–
G150Y,0.0691,0.0731,0.0565,–,0.0428,–,–,0.0646,0.0323,–
G153I,0.0467,–,–,0.0362,–,–,–,0.0553,–,–
G153M,0.0591,0.0445,0.0499,–,0.0485,0.0492,–,0.0502,–,–
T159V,0.0621,0.0428,0.0558,–,0.0541,–,–,0.0725,–,–
F163Y,0.0631,0.0603,–,–,–,0.0664,0.0458,0.0689,–,–
V165L,0.0707,–,–,0.0695,0.0651,0.033,–,0.0578,0.0586,0.0483
V165M,0.0452,0.0566,0.0616,0.0508,0.0148,–,–,–,0.0721,–
G166K,0.0491,–,0.0396,–,–,0.0616,–,–,–,–
A170E,0.0518,–,0.0647,–,0.0966,–,–,–,–,0.0543
A170S,0.0638,–,–,0.0495,0.0602,–,–,–,0.0411,–
N172R,0.0624,0.0901,0.0647,0.0812,0.058,–,–,–,–,–
F173T,0.0665,0.0672,0.06,–,–,0.051,0.0587,0.03,0.0756,–
T174G,0.0772,0.0777,0.0673,0.069,0.0576,0.0625,–,0.0567,–,–
N175S,0.0632,–,0.0614,0.0201,–,0.0585,–,–,0.0723,–
N178C,0.061,–,–,–,–,–,–,0.065,–,–

# Same assay, conditions: temperature: 34 °C; time window: 0-4 h after rhamnose induction
Variant,area with substrate ENMYFQS,area with substrate ENFYFQS,area with substrate ENGYFQS,area with substrate ENIYFQS,area with substrate ENRYFQS,area with substrate ENVYFQS,area with substrate ENKYFQS,area with substrate ENPYFQS
I145N,0.0662,–,–,–,–,–,–,–
K148L,0.0893,0.0516,0.0551,0.101,0.0452,0.0844,–,–
D149P,–,–,–,–,–,0.0583,0.0597,–
G150Y,–,0.0571,0.053,–,0.0674,0.0648,–,0.062
G153I,–,0.0325,0.045,–,–,–,–,0.0193
G153M,–,0.0588,0.0478,0.0546,–,–,–,–
T159V,–,–,–,0.0946,0.0636,–,–,0.0584
F163Y,–,0.0558,–,–,0.082,–,–,0.0669
V165L,–,–,0.0727,–,–,0.0936,0.0427,–
V165M,–,0.0574,–,0.0642,0.063,–,–,0.05
G166K,–,–,0.0409,–,0.0529,0.0478,–,0.0403
A170E,–,–,0.0478,–,–,0.0593,–,0.0636
A170S,–,0.0621,–,–,–,0.0712,–,0.0622
N172R,0.0472,–,–,–,–,0.0562,0.0637,–
F173T,0.0648,–,–,0.0717,–,0.0623,–,–
T174G,–,0.0692,–,0.0848,–,0.0659,0.067,0.0666
N175S,–,–,0.0667,–,–,–,–,–
N178C,–,0.0649,–,–,–,–,–,–
